Data: the supplement of paper PMC9433436
± gives the standard deviation of the averaged measurements. In all, about 4,100 sequences were measured (“relative kcat/Km (krel) vs genomic leader AAAGAU”: median about 1.7, highest 2% from about 6.5 on). This is a selection; strong and weak results do not stand in their true shares.

Molecular target: T1, E. coli RNase P holoenzyme (M1 P RNA + rnpA protein) (UniProt P0A7Y8)
T1 sequence: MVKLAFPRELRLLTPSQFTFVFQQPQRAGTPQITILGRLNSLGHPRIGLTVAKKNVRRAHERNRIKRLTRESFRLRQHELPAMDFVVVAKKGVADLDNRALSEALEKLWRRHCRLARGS
Test: relative kcat/Km (krel) vs genomic leader AAAGAU (relative (reference leader = 1)); higher = faster RNase P cleavage
Description: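 HTS-Kin: a pool of ptRNA-Met (21C construct) with all 4096 combinations of 5' leader nucleotides N(-6) to N(-1) was processed in vitro by E. coli RNase P (P RNA + rnpA/C5 protein) under multiple-turnover conditions at 37 C, pH 8, 17.5 mM MgCl2. Residual substrate was Illumina-sequenced at several fractions reacted, and relative kcat/Km (krel) was computed by internal competition kinetics, calibrated to the genomic leader (AAAGAU = 1). The listed hexamer is the varied N(-6)..N(-1) leader (DNA letters), and it sits between a fixed 5' stem-loop flank (GCAUGCACGAAAGUGCGUGCUAUGAA) and the mature tRNA-Met starting GGCUACGUAGCUCAGUUGG. Two technical replicates are averaged.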

[1] = fraction of substrate reacted: ~9-10% (9.79% repeat 1, 9.1% repeat 2)
[2] = fraction of substrate reacted: ~13-16% (15.68% repeat 1, 13.17% repeat 2)
[3] = fraction of substrate reacted: ~26-29% (28.66% repeat 1, 26.4% repeat 2)

Sequence | relative kcat/Km [1] | relative kcat/Km [2] | relative kcat/Km [3]
GCTAAA | 2.13 ± 1.7 | 1.47 ± 0.58 | 1.95 ± 0.53
GATCAC | 2.93 ± 0.77 | 4.27 ± 1.3 | 5.26 ± 2.1
TTTGTC | 1.05 ± 0.19 | 1.43 ± 0.32 | 2.4 ± 0.88
CGCCCA | 1.85 ± 0.27 | 2.38 ± 1.3 | 2.48 ± 0.8
GTCGGG | – | – | 1.35 ± 1.2
GATTTC | 2.78 ± 0.97 | 2.06 ± 0.32 | 3.08 ± 1.1
ATTGGA | – | – | 1.1 ± 0.92
TCACTC | 2.98 ± 1.1 | 3.39 ± 0.6 | 4.17 ± 1.6
ATACCC | 1.05 ± 0.23 | 1.06 ± 0.49 | 1.6 ± 0.78
TAGACT | 1.57 ± 0.72 | 1.78 ± 0.12 | 2.46 ± 0.38
TGCAGC | 1.49 ± 0.18 | 1.27 ± 0.17 | 2.46 ± 0.81
CTAGTC | 1.27 ± 0.6 | 1.23 ± 0.52 | 1.2 ± 0.19
TTAAAG | – | 0.945 ± 0.13 | 2.39 ± 0.35
GTTGTC | 1.22 ± 0.7 | 0.978 ± 0.41 | 1.29 ± 0.029
GTAACT | 1.61 ± 1.5 | 0.842 ± 0.58 | 1.84 ± 0.14
CAACAA | 1.73 ± 0.16 | 1.93 ± 0.43 | 2.71 ± 0.97
GTGCGA | 0.924 ± 0.86 | 0.399 ± 0.18 | 0.912 ± 0.3
GAGCTC | 0.875 ± 0.65 | – | 0.989 ± 0.38
TGTGCT | 0.945 ± 0.82 | – | 0.802 ± 0.18
GCAGAC | 0.808 ± 0.24 | 1.34 ± 0.71 | 1.91 ± 0.18
CGAATG | – | – | 1.16 ± 0.56
CGAACG | – | – | 0.73 ± 0.69
GATGCA | 0.743 ± 0.17 | 1.11 ± 0.46 | 1.08 ± 0.16

Sequence | relative kcat/Km [1] | relative kcat/Km [2] | relative kcat/Km [3]
ATACTA | 1.88 ± 1.2 | 1.52 ± 0.6 | 1.85 ± 0.34
ACGCCA | 1.04 ± 0.45 | 0.894 ± 0.25 | 1.64 ± 0.41
ACCGCG | – | 0.685 ± 0.57 | 1.56 ± 0.95
TGTCCA | 1.6 ± 0.34 | 2.33 ± 0.84 | 2.67 ± 1.3
CCCGTT | 1.08 ± 0.35 | 2.03 ± 0.24 | 2.1 ± 0.67
GGTCAT | 1.45 ± 0.43 | 2.14 ± 0.21 | 4.09 ± 2.1
GAATTA | 1.25 ± 0.15 | 1.82 ± 0.37 | 2.25 ± 0.75
ACCCTC | 2.85 ± 2 | 2.41 ± 0.28 | 2.807 ± 0.02
GCCATC | 2.88 ± 0.72 | 3.43 ± 1.3 | 4.62 ± 1.3
AACGGG | – | – | 0.891 ± 0.48
CATCGG | – | – | 0.655 ± 0.38
GGTACC | 1.24 ± 0.92 | 1.15 ± 0.14 | 1.16 ± 0.23
CAGAAA | 2.35 ± 2 | 3.24 ± 0.65 | 3.42 ± 0.13
GGCCCC | 0.72 ± 0.13 | 0.988 ± 0.15 | 1.62 ± 0.37
GTACCA | 1.52 ± 1.1 | 1.13 ± 0.32 | 1.45 ± 0.6
GCGGAG | – | – | 0.583 ± 0.36
AAGCAA | 1.01 ± 0.21 | 1.75 ± 0.23 | 1.98 ± 0.49
CACCAT | 4.34 ± 1.2 | 4.72 ± 0.96 | 7.01 ± 2.9
CTGCTG | – | – | 0.453 ± 0.36
CATTCC | 2.66 ± 0.74 | 2.47 ± 0.84 | 3.45 ± 1.6
GGTTAA | 0.853 ± 0.094 | 1.16 ± 0.33 | 1.35 ± 0.6
ACGACC | 1.02 ± 0.14 | 1.39 ± 0.44 | 1.77 ± 0.14
ACGTGG | – | – | 0.71 ± 0.24

Sequence | relative kcat/Km [1] | relative kcat/Km [2] | relative kcat/Km [3]
AGCAAT | 2.43 ± 0.54 | 2.33 ± 0.049 | 3.3 ± 1.1
AACCGA | 2.67 ± 0.52 | 3.23 ± 0.34 | 4.66 ± 1.2
TATCGC | 3.54 ± 1.1 | 4.59 ± 0.51 | 6.07 ± 2.4
GAAGCT | 1.14 ± 0.78 | 0.844 ± 0.63 | 0.958 ± 0.24
AGACTG | – | – | 0.856 ± 0.39
ACCGGC | 1.08 ± 0.83 | – | –
CCCTAG | 3.11 ± 1.7 | 2.55 ± 0.57 | 4.45 ± 1.2
CGTGAA | 2.15 ± 0.028 | 3.13 ± 1.1 | 2.87 ± 0.64
TTTAAG | 1.93 ± 1.5 | 1.69 ± 0.026 | 3.46 ± 0.87
GCGTAC | 2.64 ± 0.68 | 1.98 ± 0.25 | 3.77 ± 1.5
TCCGTG | – | – | 1.91 ± 0.025
GAGGCT | 0.402 ± 0.011 | – | 1.18 ± 0.69
GCTATC | 1.45 ± 0.98 | 0.842 ± 0.77 | 1.645 ± 0.013
TTGGCC | – | 0.606 ± 0.17 | 0.355 ± 0.29
GCGCTC | 0.9 ± 0.13 | 0.964 ± 0.85 | 1.48 ± 0.05
CCGACC | – | 1.1 ± 0.28 | 1.68 ± 0.81
GTAGTT | 1.73 ± 0.71 | 1.11 ± 0.18 | 1.39 ± 1.1
TCCACT | 2.76 ± 1.1 | 3.06 ± 0.4 | 4.72 ± 1.1
GGGGAC | 0.497 ± 0.46 | – | 1.42 ± 0.45
GATCAA | 1.51 ± 1.2 | 1.86 ± 0.76 | 3.21 ± 1.1
ACCTGC | 3.58 ± 3.5 | 3.61 ± 2.3 | 5.37 ± 2.5
